Laboratory results as given in PubChem BioAssay AID1477 (National Center for Advancing Translational Sciences (NCATS), 2009).
The whole screen tested about 230,000 compounds, of which fewer than 10 were called active. Inconclusive results, whose numbers are uncertain, are shown with a selection of clear calls. The call rests on the fitted dose curve; in most records, active means well fitted curve in the direction sought with a large enough effect; inconclusive means small, poorly fitted or top-dose-only effect, or effect the other way, or another doubt; inactive means no such curve, though single readings can be large or run the other way. No potency is given beside an inconclusive call; the fits are too rough.
Wherever activity, negative = inhibition is given: % of control where 0% means no effect.

These compounds were tested against Runt-related transcription factor 1 (Homo sapiens) + Core-binding factor subunit beta (Homo sapiens) (UniProt Q01196+Q13951) (assay: qHTS Assay for Compounds Blocking the Interaction Between CBF-beta and RUNX1 for the Treatment of Acute Myeloid Leukemia). Conditions: AlphaScreen CBFb-His/RUNX1-biotin binding, biochemical; activity, negative = inhibition: at 59.8 µM (top of the series) unless noted.
UniProt Q01196, sequence (Q01196 whole entry, looked up): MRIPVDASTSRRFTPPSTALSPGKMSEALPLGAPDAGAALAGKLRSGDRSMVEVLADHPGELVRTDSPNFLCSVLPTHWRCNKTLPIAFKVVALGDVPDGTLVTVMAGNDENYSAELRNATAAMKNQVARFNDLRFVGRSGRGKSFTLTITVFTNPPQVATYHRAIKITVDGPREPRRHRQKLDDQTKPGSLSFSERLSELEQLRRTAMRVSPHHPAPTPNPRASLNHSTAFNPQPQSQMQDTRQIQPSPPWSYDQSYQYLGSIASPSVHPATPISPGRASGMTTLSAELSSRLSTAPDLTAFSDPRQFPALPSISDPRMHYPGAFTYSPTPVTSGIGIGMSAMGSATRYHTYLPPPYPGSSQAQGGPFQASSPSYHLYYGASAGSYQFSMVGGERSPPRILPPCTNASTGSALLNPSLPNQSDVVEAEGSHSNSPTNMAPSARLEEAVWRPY
UniProt Q01196, sequence (Q13951 whole entry, looked up): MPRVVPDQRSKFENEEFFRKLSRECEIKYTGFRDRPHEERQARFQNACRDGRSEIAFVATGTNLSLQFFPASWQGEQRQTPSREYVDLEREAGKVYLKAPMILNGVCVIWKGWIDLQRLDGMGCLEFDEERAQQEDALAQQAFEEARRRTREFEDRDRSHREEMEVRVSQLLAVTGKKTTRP
Procedure, shortened: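 Interaction loss through any mechanism counts as activity. Pre-formed complex of His-CBF-beta and biotin-RUNX1 (30 nM apiece) is incubated with compound 15 min, then with 50 ng nickel and 50 ng streptavidin beads for 90 min before AlphaScreen detection.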
In the case of `CCn1cc([N+](=O)[O-])c(C(=O)N2N=C(c3ccc(Cl)c(Cl)c3)CC2c2ccccc2O)n1` (configuration not stated), the Potency is reported as inconclusive [inhibitor, single point].
For `CN(C)[C@@H]1C(=O)C(C(N)=O)=C(O)[C@]2(O)C(=O)C3=C(O)c4c(O)ccc(Cl)c4[C@](C)(O)[C@H]3C[C@@H]12`, the Potency was inconclusive [inhibitor, partial curve].
For `Cc1ccc2[nH]c(=O)c(C(c3nnnn3C3CCCC3)N3CCCc4ccccc43)cc2c1` (configuration not stated), the “activity, negative = inhibition” value was inactive: -0.354%.
`Cc1[nH]c2ccccc2c1C1(O)C(=O)N(Cc2ccc3c(c2)OCO3)c2ccccc21` (configuration not stated) was tested, and the “activity, negative = inhibition” value was inactive: 2.48%.
`COc1ccc(N2C(C(C)=O)=NN(c3ccccc3)C2c2cccs2)cc1` (configuration not stated) was tested, and the Potency was inconclusive [activator, partial curve].
In the case of `Cc1cccc(C(=O)N[C@H](C(=O)OCC(=O)NC2CCS(=O)(=O)C2)C(C)C)c1` (some centres not stated), the Potency is reported as inconclusive [inhibitor, single point].
For `COc1ccc(N2C(=O)CC(Sc3nccc(C)n3)C2=O)cc1` (configuration not stated), the “activity, negative = inhibition” value was inactive: 0.612%.
`CC1(C)SC2C(N3C(=O)C(c4ccccc4)NC3(C)C)C(=O)N2C1C(=O)O` (configuration not stated) was tested, and the Potency was inconclusive [inhibitor, partial curve].
For `c1ccc(C2=Nn3c(nnc3-c3ccccn3)SC2)cc1`, the Potency was inconclusive [inhibitor, single point].
`C=C(C)CC(C)(C)C` was tested, and the “activity, negative = inhibition” value was inactive: 0.536%.
`CSc1nc(Sc2ccccc2Cl)c2ccccc2n1` was tested, and the Potency was inconclusive [activator, partial curve].
In the case of `COc1ccc(N(C(=O)c2ccn[nH]2)C(C(=O)NC(C)(C)C)c2ccc(F)cc2)cc1` (configuration not stated), the “activity, negative = inhibition” value is reported as inactive: 3.73%.
With `Cc1onc(C(=O)Nc2c(C)n(C)n(-c3ccccc3)c2=O)c1[N+](=O)[O-]` the Potency was inconclusive [inhibitor, single point].
With `COc1cccc(N2CCN(C3CC(=O)N(c4ccc(F)c(Cl)c4)C3=O)CC2)c1` (configuration not stated) the “activity, negative = inhibition” value was inactive: -10.1%.
For `CCNC(=S)N=Nc1c(O)[nH]c2ccc(C(C)C)cc12`, the Potency was inconclusive [inhibitor, partial curve].
With `C=CCN(C(C(=O)OC)C(C)C)S(=O)(=O)CCl` (configuration not stated) the “activity, negative = inhibition” value was inactive: 0.375%.
`O=C1NN(c2ccc(F)cc2)C(=O)/C1=C\C=C\c1ccco1` was tested, and the “activity, negative = inhibition” value was inactive: -2.71%.
`COc1ccc(CSc2n[nH]c(C)n2)cc1[N+](=O)[O-]` was tested, and the “activity, negative = inhibition” value was inactive: 1.41%.
`COc1ccc(-c2cc(C3CC3)nc3sc(C#N)c(N)c23)cc1` was tested, and the Potency was inconclusive [activator, partial curve].
With `CCn1nc(NC(=O)c2ccco2)c2cc3cc(C)ccc3nc21` the Potency was inconclusive [activator, partial curve].
With `COc1ccc(-c2cn3cccnc3n2)cc1NC(=O)c1ccc(Br)o1` the Potency was inconclusive [activator, single point].
In the case of `COc1ccc(C2CC(=O)N(C)c3ccccc3S2)cc1OC` (configuration not stated), the “activity, negative = inhibition” value is reported as inactive: -1.65%.
For `CCOC(=O)Nc1ccc(C)cc1NC(=O)OCC`, the “activity, negative = inhibition” value was inactive: -5.55%.
For `CN(Cc1ccc2nonc2c1)Cc1nc(Cc2cccc(F)c2)no1`, the Potency was inconclusive [activator, single point].
With `COC(=O)C1(C(=O)OC)C/C=C\C/C=C\c2ccccc2[C@@H]1C[N+](=O)[O-]` the Potency was “inactive”.
In the case of `Nc1nn2c(C(F)(F)F)cc(=O)[nH]c2c1N=Nc1cccc(F)c1`, the Potency is reported as inconclusive [inhibitor, partial curve].
In the case of `COc1ccccc1-c1ccc(SCc2ccc(F)cc2)nn1`, the Potency is reported as inconclusive [activator, partial curve].
In the case of `O=C(c1ccccc1)N(NC(=O)C(O)(c1ccccc1)c1ccccc1)c1cccc(F)c1`, the Potency is reported as inconclusive [inhibitor, single point].
`Cc1ccc(N2C(=O)/C(=C/c3ccc(CN(CCC#N)S(C)(=O)=O)o3)C(=O)NC2=S)cc1` was tested, and the Potency was inconclusive [inhibitor, single point].
With `COc1cccc(C(=O)NNC(=O)Cc2ccc(Cl)cc2)c1` the “activity, negative = inhibition” value was inactive: -4.49%.
With `CSC(=S)N/N=C/c1ccccc1` the “activity, negative = inhibition” value was inactive: -11.1%.
For `N#Cc1cc2c(nc1SCC1COc3ccccc3O1)CCC2` (configuration not stated), the Potency was inconclusive [activator, partial curve].
With `CCC(C(N)=O)c1ccccc1` (configuration not stated) the “activity, negative = inhibition” value was inactive: 13.2%.
`Cn1nc(C(F)(F)F)c(C(=O)Nc2ccc(F)cc2F)c1Cl` was tested, and the Potency was inconclusive [inhibitor, single point].
In the case of `O=C(O)C1CC(c2ccc(F)cc2)=NO1` (configuration not stated), the Potency is reported as inconclusive [inhibitor, full curve, poor fit].
In the case of `O=C(c1cccs1)c1no[n+]([O-])c1C(=O)c1cccs1`, the “activity, negative = inhibition” value is reported as inactive: -12.3%.
`COc1ccc2[nH]cc(CC(=O)O)c2c1` was tested, and the “activity, negative = inhibition” value was inactive: 2.18%.
`O=S(=O)(C/C(=C/CO)S(=O)(=O)c1ccccc1)c1ccccc1` was tested, and the “activity, negative = inhibition” value was inactive: 1.39%.
With `CC1CCC(C(C)C)C(OC(=O)CSc2nc(N)cc(=O)[nH]2)C1` (configuration not stated) the “activity, negative = inhibition” value was inactive: 2.02%.
In the case of `O=S(=O)(c1ccc(Br)s1)N1CCC(Cc2ccccc2)CC1`, the Potency is reported as inconclusive [activator, full curve].
For `Cc1nc(N=Nc2cc([N+](=O)[O-])ccc2Cl)c(COP(=O)(O)O)c(C=O)c1O`, the Potency was inconclusive [inhibitor, single point].
With `COc1ccc(/C=N/NC(=O)c2ccc(C)cc2)cc1CN1CCN(c2ccc(F)cc2)CC1` the “activity, negative = inhibition” value was inactive: 4.61%.
`CCC(C)(c1ccc(C(=O)OC)s1)c1ccc(C(=O)OC)s1` was tested, and the Potency was inconclusive [activator, single point].
In the case of `CCCN(CCC)S(=O)(=O)c1ccc(Cl)c(OC)c1`, the Potency is reported as inconclusive [activator, partial curve, poor fit].
With `CCOC(=O)c1cc(-c2ccccc2)n(CCC(=O)N2CCN(c3ccc(OC)cc3)CC2)c1C` the Potency was inconclusive [inhibitor, single point].
In the case of `CCOC(=O)C(=CNc1ccc2c(c1)c1ccccc1n2CC)C(=O)OCC`, the Potency is reported as inconclusive [activator, partial curve].
For `C[C@H](N)Cc1cnc[nH]1`, the Potency was inconclusive [activator, partial curve, poor fit].
